Article PMC9136127
No constants are given. Whether binding was seen depends on the method and setting. Binding seen in cells or lysates may run through a third protein. Some binding calls cover weakened binding; strength is not graded here. For some assays here: Sequences can lack the tags named with a protein.

Protein sequences, listed by entry. Tags and fused reporters are not part of them.
UniProt Q07065: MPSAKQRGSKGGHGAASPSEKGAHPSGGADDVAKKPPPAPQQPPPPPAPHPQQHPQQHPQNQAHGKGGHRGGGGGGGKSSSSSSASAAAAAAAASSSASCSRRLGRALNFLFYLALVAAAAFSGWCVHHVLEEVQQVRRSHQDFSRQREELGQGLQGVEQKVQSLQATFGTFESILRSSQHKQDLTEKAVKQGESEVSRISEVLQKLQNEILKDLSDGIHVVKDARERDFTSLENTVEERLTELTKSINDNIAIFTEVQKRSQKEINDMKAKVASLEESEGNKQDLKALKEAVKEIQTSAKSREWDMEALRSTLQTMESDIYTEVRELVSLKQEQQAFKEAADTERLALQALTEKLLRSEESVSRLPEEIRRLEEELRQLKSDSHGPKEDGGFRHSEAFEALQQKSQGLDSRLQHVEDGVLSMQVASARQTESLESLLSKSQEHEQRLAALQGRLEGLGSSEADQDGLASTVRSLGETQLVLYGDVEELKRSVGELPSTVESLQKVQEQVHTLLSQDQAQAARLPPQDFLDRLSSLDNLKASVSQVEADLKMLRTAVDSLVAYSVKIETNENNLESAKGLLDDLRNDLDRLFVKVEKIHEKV

Assays:
[1] = target: T1, RHBDL4 (endogenous) (not stated (endogenous; cell line of Figure 5D not named, HeLa or MEF)) (UniProt Q8TEB9); test: co-IP; endogenous RHBDL4 precipitated from cell lysate (25 mM Tris, 150 mM NaCl, 1 mM EDTA, 1% NP-40, 5% glycerol, pH 7.4) with rabbit anti-RHBDL4 crosslinked to Protein A/G magnetic beads, 1 h at 4 °C; Western blot
T1 sequence: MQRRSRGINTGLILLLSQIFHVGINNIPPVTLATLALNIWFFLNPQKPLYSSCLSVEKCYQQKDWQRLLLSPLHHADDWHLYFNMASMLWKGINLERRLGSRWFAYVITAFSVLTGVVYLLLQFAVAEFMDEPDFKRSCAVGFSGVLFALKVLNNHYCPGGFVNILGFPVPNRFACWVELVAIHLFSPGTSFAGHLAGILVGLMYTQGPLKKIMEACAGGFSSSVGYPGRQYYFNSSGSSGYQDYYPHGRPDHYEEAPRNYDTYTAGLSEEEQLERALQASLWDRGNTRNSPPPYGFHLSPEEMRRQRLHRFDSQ

[2] = target: T2, RHBDL4 HA (UniProt Q8TEB9); test: co-IP; tagged RHBDL4 and CLIMP-63 transiently expressed in HeLa cells; lysis buffer with CHAPS instead of NP-40; anti-HA or anti-Myc magnetic beads; Western blot
T2 sequence: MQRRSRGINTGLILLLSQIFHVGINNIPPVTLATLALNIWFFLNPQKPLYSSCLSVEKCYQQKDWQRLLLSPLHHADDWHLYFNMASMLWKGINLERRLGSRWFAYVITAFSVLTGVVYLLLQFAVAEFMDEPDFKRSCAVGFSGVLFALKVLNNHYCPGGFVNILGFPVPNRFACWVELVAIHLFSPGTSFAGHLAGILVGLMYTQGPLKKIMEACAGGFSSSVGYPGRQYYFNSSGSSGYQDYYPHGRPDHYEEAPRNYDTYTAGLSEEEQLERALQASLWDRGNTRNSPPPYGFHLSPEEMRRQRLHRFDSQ

[3] = target: CLIMP-63 hemagglutinin (HA) (UniProt Q07065); test: as above
[4] = target: CLIMP-63 Myc (UniProt Q07065); test: as above

cytoskeleton-linking membrane protein 63 (CLIMP-63), endogenous (from UniProt Q07065 1-602)
binding [1]: binds

CLIMP-63 Myc (from UniProt Q07065 1-602)
binding [2]: binds

B1: RHBDL4 Myc (enzyme, UniProt Q8TEB9 1-315)
chain: MQRRSRGINTGLILLLSQIFHVGINNIPPVTLATLALNIWFFLNPQKPLYSSCLSVEKCYQQKDWQRLLLSPLHHADDWHLYFNMASMLWKGINLERRLGSRWFAYVITAFSVLTGVVYLLLQFAVAEFMDEPDFKRSCAVGFSGVLFALKVLNNHYCPGGFVNILGFPVPNRFACWVELVAIHLFSPGTSFAGHLAGILVGLMYTQGPLKKIMEACAGGFSSSVGYPGRQYYFNSSGSSGYQDYYPHGRPDHYEEAPRNYDTYTAGLSEEEQLERALQASLWDRGNTRNSPPPYGFHLSPEEMRRQRLHRFDSQ
binding [3]: binds

B2: RHBDL4 S144A (enzyme, UniProt Q8TEB9 1-315)
chain: MQRRSRGINTGLILLLSQIFHVGINNIPPVTLATLALNIWFFLNPQKPLYSSCLSVEKCYQQKDWQRLLLSPLHHADDWHLYFNMASMLWKGINLERRLGSRWFAYVITAFSVLTGVVYLLLQFAVAEFMDEPDFKRSCAVGFAGVLFALKVLNNHYCPGGFVNILGFPVPNRFACWVELVAIHLFSPGTSFAGHLAGILVGLMYTQGPLKKIMEACAGGFSSSVGYPGRQYYFNSSGSSGYQDYYPHGRPDHYEEAPRNYDTYTAGLSEEEQLERALQASLWDRGNTRNSPPPYGFHLSPEEMRRQRLHRFDSQ
binding [4]: binds

B3: calnexin (CNX), endogenous (protein, UniProt P27824 21-592)
chain: HDGHDDDVIDIEDDLDDVIEEVEDSKPDTTAPPSSPKVTYKAPVPTGEVYFADSFDRGTLSGWILSKAKKDDTDDEIAKYDGKWEVEEMKESKLPGDKGLVLMSRAKHHAISAKLNKPFLFDTKPLIVQYEVNFQNGIECGGAYVKLLSKTPELNLDQFHDKTPYTIMFGPDKCGEDYKLHFIFRHKNPKTGIYEEKHAKRPDADLKTYFTDKKTHLYTLILNPDNSFEILVDQSVVNSGNLLNDMTPPVNPSREIEDPEDRKPEDWDERPKIPDPEAVKPDDWDEDAPAKIPDEEATKPEGWLDDEPEYVPDPDAEKPEDWDEDMDGEWEAPQIANPRCESAPGCGVWQRPVIDNPNYKGKWKPPMIDNPSYQGIWKPRKIPNPDFFEDLEPFRMTPFSAIGLELWSMTSDIFFDNFIICADRRIVDDWANDGWGLKKAADGAAEPGVVGQMIEAAEERPWLWVVYILTVALPVFLVILFCCSGKKQTSGMEYKKTDAPQPDVKEEEEEKEEEKDKGDEEEEGEEKLEEKQKSDAEEDGGTVSQEEEDRKPKAEEDEILNRSPRNRKPRRE
binding [1]: no binding
